The other results are listed elsewhere or left out.

This experiment deals with T1, MBP-FoxP1dN (Mus musculus, UniProt P58462 326-579).
T1 sequence: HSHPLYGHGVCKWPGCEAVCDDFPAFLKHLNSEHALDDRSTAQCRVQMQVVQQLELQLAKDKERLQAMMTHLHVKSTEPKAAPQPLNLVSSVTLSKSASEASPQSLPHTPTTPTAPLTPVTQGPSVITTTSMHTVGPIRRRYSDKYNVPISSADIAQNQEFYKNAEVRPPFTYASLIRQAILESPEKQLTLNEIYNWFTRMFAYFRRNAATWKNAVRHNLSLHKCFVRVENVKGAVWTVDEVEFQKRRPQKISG
The experiment can be described thus: PD-seq (MBP pull-down with sequencing); 20 mM Tris-HCl pH 7.5, 100 mM NaCl, 1.5 mM MgCl2, 0.4 uM protein, 0.1 uM dsDNA library, 30 min, room temperature, amylose pull-down; high values mean tight binding. To be noted: protein: recombinant; tags: His6-MBP; chain copies: 2; dsDNA, one strand shown. In outline:
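Mouse FoxP3 or FoxP1 fragment lacking the N-terminus, His6-MBP-tagged and expressed in E. coli, was incubated at 0.4 µM with 0.1 µM Klenow-filled degenerate double-stranded DNA library for 30 min at room temperature in Tris pH 7.5 buffer with NaCl and MgCl2. Complexes captured on amylose resin were washed three times and their DNA sequenced on Illumina. Binding is reads-per-million enrichment of pull-down over input, replicates pooled.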
On to “GATGATTGTTCTCCCAGCTGATGAATTATTGTCTTCGAGTAAACAAATTTTCCTAATCTTTCTGTTCAAGCGCCATCTAC”, for which the binding signal is 1.48 RPM ratio (pull-down/input).
For “GATGATTGTTCTCCCAGCTGATGAATTCATAGCCTCGAGTAAACAAATTTTCCTAATCTTTCTGTTCAAGCGCCATCTAC”, the binding signal is 0.914 RPM ratio (pull-down/input).
As for “GATGATTGTTCTCCCAGCTGATGAATTCGTGGACTCGAGTAAACAAATTTTCCTAATCTTTCTGTTCAAGCGCCATCTAC”, the binding signal was 0.806 RPM ratio (pull-down/input).
As to “GATGATTGTTCTCCCAGCTGATGAATTTCCACGGTCGAGTAAACAAATTTTCCTAATCTTTCTGTTCAAGCGCCATCTAC”, the binding signal is 0.792 RPM ratio (pull-down/input).
Then “GATGATTGTTCTCCCAGCTGATGAATTTTCTACATCGAGTAAACAAATTTTCCTAATCTTTCTGTTCAAGCGCCATCTAC”, with 1.02 RPM ratio (pull-down/input); and “GATGATTGTTCTCCCAGCTGATGAATTATTGCAATCGAGTAAACAAATTTTCCTAATCTTTCTGTTCAAGCGCCATCTAC”, with 1.49 RPM ratio (pull-down/input); and “GATGATTGTTCTCCCAGCTGATGAATTAACCATATCGAGTAAACAAATTTTCCTAATCTTTCTGTTCAAGCGCCATCTAC”, with 0.989 RPM ratio (pull-down/input).
Then “GATGATTGTTCTCCCAGCTGATGAATTTATCGTATCGAGTAAACAAATTTTCCTAATCTTTCTGTTCAAGCGCCATCTAC”, with 1.22 RPM ratio (pull-down/input).
In the case of “GATGATTGTTCTCCCAGCTGATGAATTTTAAGGCTCGAGTAAACAAATTTTCCTAATCTTTCTGTTCAAGCGCCATCTAC”, the binding signal was 0.833 RPM ratio (pull-down/input).
For the sequence “GATGATTGTTCTCCCAGCTGATGAATTCATACCGTCGAGTAAACAAATTTTCCTAATCTTTCTGTTCAAGCGCCATCTAC”, the binding signal is 0.868 RPM ratio (pull-down/input).
Regarding “GATGATTGTTCTCCCAGCTGATGAATTATCCGAATCGAGTAAACAAATTTTCCTAATCTTTCTGTTCAAGCGCCATCTAC”, the binding signal was 0.97 RPM ratio (pull-down/input).
As to “GATGATTGTTCTCCCAGCTGATGAATTTGACGGATCGAGTAAACAAATTTTCCTAATCTTTCTGTTCAAGCGCCATCTAC”, the binding signal was 0.841 RPM ratio (pull-down/input).
For the sequence “GATGATTGTTCTCCCAGCTGATGAATTCTTAAGTTCGAGTAAACAAATTTTCCTAATCTTTCTGTTCAAGCGCCATCTAC”, the binding signal was 0.861 RPM ratio (pull-down/input).
For the sequence “GATGATTGTTCTCCCAGCTGATGAATTACGGCTCTCGAGTAAACAAATTTTCCTAATCTTTCTGTTCAAGCGCCATCTAC”, the binding signal was 0.947 RPM ratio (pull-down/input).
Consider “GATGATTGTTCTCCCAGCTGATGAATTAAAGGGATCGAGTAAACAAATTTTCCTAATCTTTCTGTTCAAGCGCCATCTAC”, for which the binding signal is 0.92 RPM ratio (pull-down/input).
As for “GATGATTGTTCTCCCAGCTGATGAATTTACCCTCTCGAGTAAACAAATTTTCCTAATCTTTCTGTTCAAGCGCCATCTAC”, the binding signal is 1.06 RPM ratio (pull-down/input).
In the case of “GATGATTGTTCTCCCAGCTGATGAATTGCCTACTTCGAGTAAACAAATTTTCCTAATCTTTCTGTTCAAGCGCCATCTAC”, the binding signal is 0.913 RPM ratio (pull-down/input).
As for “GATGATTGTTCTCCCAGCTGATGAATTACGTTGATCGAGTAAACAAATTTTCCTAATCTTTCTGTTCAAGCGCCATCTAC”, the binding signal was 1.16 RPM ratio (pull-down/input).
Turning to “GATGATTGTTCTCCCAGCTGATGAATTCCAACGATCGAGTAAACAAATTTTCCTAATCTTTCTGTTCAAGCGCCATCTAC”, the binding signal was 0.859 RPM ratio (pull-down/input).
As for “GATGATTGTTCTCCCAGCTGATGAATTCCGCTAGTCGAGTAAACAAATTTTCCTAATCTTTCTGTTCAAGCGCCATCTAC”, the figure is 0.843 RPM ratio (pull-down/input); as for “GATGATTGTTCTCCCAGCTGATGAATTGCGATACTCGAGTAAACAAATTTTCCTAATCTTTCTGTTCAAGCGCCATCTAC”, 1.09 RPM ratio (pull-down/input); as for “GATGATTGTTCTCCCAGCTGATGAATTCAGATGTTCGAGTAAACAAATTTTCCTAATCTTTCTGTTCAAGCGCCATCTAC”, 0.957 RPM ratio (pull-down/input).
As to “GATGATTGTTCTCCCAGCTGATGAATTCAGGCATTCGAGTAAACAAATTTTCCTAATCTTTCTGTTCAAGCGCCATCTAC”, the binding signal was 1.01 RPM ratio (pull-down/input).
Turning to “GATGATTGTTCTCCCAGCTGATGAATTTTGCTCGTCGAGTAAACAAATTTTCCTAATCTTTCTGTTCAAGCGCCATCTAC”, the binding signal is 0.898 RPM ratio (pull-down/input).
Turning to “GATGATTGTTCTCCCAGCTGATGAATTCCGCTTGTCGAGTAAACAAATTTTCCTAATCTTTCTGTTCAAGCGCCATCTAC”, the binding signal was 0.846 RPM ratio (pull-down/input).
As to “GATGATTGTTCTCCCAGCTGATGAATTGATGATATCGAGTAAACAAATTTTCCTAATCTTTCTGTTCAAGCGCCATCTAC”, the binding signal is 1.21 RPM ratio (pull-down/input).
As for “GATGATTGTTCTCCCAGCTGATGAATTGCACATGTCGAGTAAACAAATTTTCCTAATCTTTCTGTTCAAGCGCCATCTAC”, the figure is 1.34 RPM ratio (pull-down/input); as for “GATGATTGTTCTCCCAGCTGATGAATTATCGCCGTCGAGTAAACAAATTTTCCTAATCTTTCTGTTCAAGCGCCATCTAC”, 0.983 RPM ratio (pull-down/input); as for “GATGATTGTTCTCCCAGCTGATGAATTCCATTGTTCGAGTAAACAAATTTTCCTAATCTTTCTGTTCAAGCGCCATCTAC”, 0.957 RPM ratio (pull-down/input).
For “GATGATTGTTCTCCCAGCTGATGAATTGCTGCACTCGAGTAAACAAATTTTCCTAATCTTTCTGTTCAAGCGCCATCTAC”, the binding signal was 1.06 RPM ratio (pull-down/input).
With “GATGATTGTTCTCCCAGCTGATGAATTGACTATGTCGAGTAAACAAATTTTCCTAATCTTTCTGTTCAAGCGCCATCTAC”, the binding signal is 1.07 RPM ratio (pull-down/input).
Then “GATGATTGTTCTCCCAGCTGATGAATTTCAATCATCGAGTAAACAAATTTTCCTAATCTTTCTGTTCAAGCGCCATCTAC”, with 1.01 RPM ratio (pull-down/input); and “GATGATTGTTCTCCCAGCTGATGAATTGCGCACCTCGAGTAAACAAATTTTCCTAATCTTTCTGTTCAAGCGCCATCTAC”, with 1.05 RPM ratio (pull-down/input).
With “GATGATTGTTCTCCCAGCTGATGAATTTTTAAGCTCGAGTAAACAAATTTTCCTAATCTTTCTGTTCAAGCGCCATCTAC”, the binding signal was 0.876 RPM ratio (pull-down/input).
With “GATGATTGTTCTCCCAGCTGATGAATTGAAATTCTCGAGTAAACAAATTTTCCTAATCTTTCTGTTCAAGCGCCATCTAC”, the binding signal is 0.884 RPM ratio (pull-down/input).
As for “GATGATTGTTCTCCCAGCTGATGAATTGCTAGTGTCGAGTAAACAAATTTTCCTAATCTTTCTGTTCAAGCGCCATCTAC”, the figure is 1.09 RPM ratio (pull-down/input); as for “GATGATTGTTCTCCCAGCTGATGAATTTCTTGTGTCGAGTAAACAAATTTTCCTAATCTTTCTGTTCAAGCGCCATCTAC”, 1 RPM ratio (pull-down/input); as for “GATGATTGTTCTCCCAGCTGATGAATTTCTTAGCTCGAGTAAACAAATTTTCCTAATCTTTCTGTTCAAGCGCCATCTAC”, 0.774 RPM ratio (pull-down/input).
“GATGATTGTTCTCCCAGCTGATGAATTTGACTACTCGAGTAAACAAATTTTCCTAATCTTTCTGTTCAAGCGCCATCTAC”: the binding signal is 0.836 RPM ratio (pull-down/input).
Turning to “GATGATTGTTCTCCCAGCTGATGAATTCGATCAGTCGAGTAAACAAATTTTCCTAATCTTTCTGTTCAAGCGCCATCTAC”, the binding signal was 0.779 RPM ratio (pull-down/input).
